In the supplement of paper PMC4967469:

Key:
[1] = compound: CCc1nc(-c2cccc(C)c2)c(-c2ccnc(NC(=O)c3ccccc3)c2)s1 [TAK-715]; assay: Viability of human cancer cell lines after 72 h of drug (GDSC screen); conditions: top dose inferred
Method: (§1)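 Human cancer cell lines in 384-well plates, medium with 10% serum, drug for 72 h over a 256-fold dose range (nine 2-fold or five 4-fold steps up to the top dose). Adherent lines were fixed and stained with the nucleic acid dye Syto60, suspension lines read with resazurin; signal relative to control wells, capped at 0 and 100%. One two-parameter sigmoid per drug and line, fitted in a mixed model over all curves with the slope shared within a line.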

[2] = compound: Cn1cnc2c(F)c(Nc3ccc(Br)cc3Cl)c(C(=O)NOCCO)cc21 [AZD6244]; assay: as above; conditions: top dose 4 µM; screen: GDSC drug entry 1498; top dose inferred
Method: as §1

Cell Line: 8-MG-BA (glioma, adherent, top dose 20 µM)
- AUC [1]: 0.919
- IC50 [1]: > 20 µM

Cell Line: 22RV1 (prostate, adherent, top dose 20 µM)
- AUC [1]: 0.949
- IC50 [1]: > 20 µM

Cell Line: 42-MG-BA (glioma, adherent, top dose 20 µM)
- AUC [1]: 0.982
- IC50 [1]: > 20 µM

Cell Line: 201T (lung adenocarcinoma, adherent, top dose 20 µM)
- AUC [1]: 0.887
- IC50 [1]: > 20 µM

Cell Line: 451Lu (melanoma, adherent, top dose 20 µM)
- AUC [1]: 0.98
- IC50 [1]: > 20 µM

Cell Line: 639-V (bladder, adherent, top dose 20 µM)
- AUC [1]: 0.99
- IC50 [1]: > 20 µM

Cell Line: 647-V (bladder, adherent, top dose 20 µM)
- AUC [1]: 0.94
- IC50 [1]: > 20 µM

Cell Line: 697 (lymphoblastic leukaemia, suspension, top dose 20 µM)
- AUC [1]: 0.736
- IC50 [1]: 4.98 µM

Cell Line: 769-P (kidney, adherent, top dose 20 µM)
- AUC [1]: 0.826
- IC50 [1]: 13.6 µM

Cell Line: 786-0 (kidney, adherent, top dose 20 µM)
- AUC [1]: 0.905
- IC50 [1]: > 20 µM

Cell Line: 5637 (bladder, adherent, top dose 20 µM)
- AUC [1]: 0.946
- IC50 [1]: > 20 µM

Cell Line: 8305C (thyroid, adherent, top dose 20 µM)
- AUC [1]: 0.977
- IC50 [1]: > 20 µM

Cell Line: 8505C (thyroid, adherent, top dose 20 µM)
- AUC [1]: 0.958
- IC50 [1]: > 20 µM

Cell Line: 23132-87 (stomach, adherent, top dose 20 µM)
- AUC [1]: 0.928
- IC50 [1]: > 20 µM

Cell Line: A3-KAW (B-cell lymphoma, suspension, top dose 20 µM)
- AUC [1]: 0.822
- IC50 [1]: 8.72 µM

Cell Line: A4-Fuk (B-cell lymphoma, suspension, top dose 20 µM)
- AUC [1]: 0.82
- IC50 [1]: 12.2 µM

Cell Line: A101D (melanoma, adherent, top dose 20 µM)
- AUC [1]: 0.957
- IC50 [1]: > 20 µM

Cell Line: A172 (glioma, adherent, top dose 20 µM)
- AUC [1]: 0.94
- IC50 [1]: > 20 µM

Cell Line: A204 (rhabdomyosarcoma, adherent, top dose 20 µM)
- AUC [1]: 0.917
- IC50 [1]: > 20 µM

Cell Line: A253 (head and neck, adherent, top dose 20 µM)
- AUC [1]: 0.912
- IC50 [1]: > 20 µM

Cell Line: A375 (melanoma, adherent, top dose 20 µM)
- AUC [1]: 0.895
- IC50 [1]: 16.7 µM

Cell Line: A388 (skin, adherent, top dose 20 µM)
- AUC [1]: 0.927
- IC50 [1]: > 20 µM

Cell Line: A427 (non-small cell lung carcinoma, adherent, top dose 20 µM)
- AUC [1]: 0.906
- IC50 [1]: > 20 µM

Cell Line: A431 (skin, adherent, top dose 20 µM)
- AUC [1]: 0.823
- IC50 [1]: 11.1 µM

Cell Line: A498 (kidney, adherent, top dose 20 µM)
- AUC [1]: 0.966
- IC50 [1]: > 20 µM

Cell Line: A673 (rhabdomyosarcoma, adherent, top dose 20 µM)
- AUC [1]: 0.919
- IC50 [1]: > 20 µM

Cell Line: A704 (kidney, adherent, top dose 20 µM)
- AUC [1]: 0.987
- IC50 [1]: > 20 µM

Cell Line: A2058 (melanoma, adherent, top dose 20 µM)
- AUC [1]: 0.897
- IC50 [1]: > 20 µM

Cell Line: A2780 (ovary, semi-adherent, top dose 20 µM)
- AUC [1]: 0.875
- IC50 [1]: > 20 µM

Cell Line: ABC-1 (lung adenocarcinoma, adherent, top dose 20 µM)
- AUC [1]: 0.889
- IC50 [1]: > 20 µM

Cell Line: ACHN (kidney, adherent, top dose 20 µM)
- AUC [1]: 0.858
- IC50 [1]: > 20 µM

Cell Line: AGS (stomach, adherent, top dose 20 µM)
- AUC [1]: 0.948
- IC50 [1]: > 20 µM

Cell Line: ALL-PO (lymphoblastic leukaemia, suspension, top dose 20 µM)
- AUC [1]: 0.774
- IC50 [1]: 8.27 µM

Cell Line: ALL-SIL (T-cell leukaemia, suspension, top dose 20 µM)
- AUC [1]: 0.52
- IC50 [1]: 1.4 µM

Cell Line: AM-38 (glioma, semi-adherent, top dose 20 µM)
- AUC [1]: 0.969
- IC50 [1]: > 20 µM

Cell Line: AMO-1 (haematopoietic neoplasm, suspension, top dose 20 µM)
- AUC [1]: 0.908
- IC50 [1]: > 20 µM

Cell Line: AN3-CA (endometrium, adherent, top dose 20 µM)
- AUC [1]: 0.95
- IC50 [1]: > 20 µM

Cell Line: ARH-77 (myeloma, suspension, top dose 20 µM)
- AUC [1]: 0.914
- IC50 [1]: > 20 µM

Cell Line: ASH-3 (thyroid, adherent, top dose 20 µM)
- AUC [1]: 0.988
- IC50 [1]: > 20 µM

Cell Line: ATN-1 (T-cell lymphoblastic leukaemia, suspension, top dose 20 µM)
- AUC [1]: 0.488
- IC50 [1]: 1.16 µM

Cell Line: AU565 (breast, adherent, top dose 20 µM)
- AUC [1]: 0.952
- IC50 [1]: > 20 µM

Cell Line: AsPC-1 (pancreas, adherent, top dose 20 µM)
- AUC [1]: 0.951
- IC50 [1]: > 20 µM

Cell Line: BB30-HNC (head and neck, adherent, top dose 20 µM)
- AUC [1]: 0.918
- IC50 [1]: > 20 µM

Cell Line: BB49-HNC (head and neck, adherent, top dose 20 µM)
- AUC [1]: 0.978
- IC50 [1]: > 20 µM

Cell Line: BB65-RCC (kidney, adherent, top dose 20 µM)
- AUC [1]: 0.972
- IC50 [1]: > 20 µM

Cell Line: BC-1 (B-cell lymphoma, suspension, top dose 20 µM)
- AUC [1]: 0.837
- IC50 [1]: 10.6 µM

Cell Line: BC-3 (B-cell lymphoma, suspension, top dose 20 µM)
- AUC [1]: 0.929
- IC50 [1]: > 20 µM

Cell Line: BCPAP (thyroid, adherent, top dose 20 µM)
- AUC [1]: 0.955
- IC50 [1]: > 20 µM

Cell Line: BE2-M17 (neuroblastoma, adherent, top dose 20 µM)
- AUC [1]: 0.945
- IC50 [1]: > 20 µM

Cell Line: BE-13 (lymphoblastic leukaemia, suspension, top dose 20 µM)
- AUC [1]: 0.836
- IC50 [1]: 12.1 µM

Cell Line: BEN (non-small cell lung carcinoma, adherent, top dose 20 µM)
- AUC [1]: 0.94
- IC50 [1]: > 20 µM

Cell Line: BFTC-905 (bladder, adherent, top dose 20 µM)
- AUC [1]: 0.937
- IC50 [1]: > 20 µM

Cell Line: BFTC-909 (kidney, adherent, top dose 20 µM)
- AUC [1]: 0.977
- IC50 [1]: > 20 µM

Cell Line: BHT-101 (thyroid, adherent, top dose 20 µM)
- AUC [1]: 0.962
- IC50 [1]: > 20 µM

Cell Line: BHY (head and neck, adherent, top dose 20 µM)
- AUC [1]: 0.917
- IC50 [1]: > 20 µM

Cell Line: BICR10 (head and neck, adherent, top dose 20 µM)
- AUC [1]: 0.985
- IC50 [1]: > 20 µM

Cell Line: BICR22 (head and neck, adherent, top dose 20 µM)
- AUC [1]: 0.978
- IC50 [1]: > 20 µM

Cell Line: BICR31 (head and neck, adherent, top dose 20 µM)
- AUC [1]: 0.981
- IC50 [1]: > 20 µM

Cell Line: BICR78 (head and neck, adherent, top dose 20 µM)
- AUC [1]: 0.958
- IC50 [1]: > 20 µM

Cell Line: BL-41 (Burkitt lymphoma, suspension, top dose 20 µM)
- AUC [1]: 0.839
- IC50 [1]: 9.27 µM

Cell Line: BPH-1 (prostate, adherent, top dose 20 µM)
- AUC [1]: 0.702
- IC50 [1]: 4.96 µM

Cell Line: BT-20 (breast, adherent, top dose 20 µM)
- AUC [1]: 0.925
- IC50 [1]: > 20 µM

Cell Line: BT-474 (breast, adherent, top dose 20 µM)
- AUC [1]: 0.89
- IC50 [1]: > 20 µM

Cell Line: BT-483 (breast, adherent, top dose 20 µM)
- AUC [1]: 0.963
- IC50 [1]: > 20 µM

Cell Line: BV-173 (chronic myeloid leukaemia, suspension, top dose 20 µM)
- AUC [1]: 0.885
- IC50 [1]: 17.3 µM

Cell Line: Becker (glioma, adherent, top dose 20 µM)
- AUC [1]: 0.954
- IC50 [1]: > 20 µM

Cell Line: BxPC-3 (pancreas, adherent, top dose 20 µM)
- AUC [1]: 0.949
- IC50 [1]: > 20 µM

Cell Line: C2BBe1 (large intestine, adherent, top dose 20 µM)
- AUC [1]: 0.965
- IC50 [1]: > 20 µM

Cell Line: C3A (liver, adherent, top dose 20 µM)
- AUC [1]: 0.987
- IC50 [1]: > 20 µM

Cell Line: C32 (melanoma, adherent, top dose 20 µM)
- AUC [1]: 0.967
- IC50 [1]: > 20 µM

Cell Line: C-4-I (cervix, adherent, top dose 20 µM)
- AUC [1]: 0.971
- IC50 [1]: > 20 µM

Cell Line: C-33-A (cervix, adherent, top dose 20 µM)
- AUC [1]: 0.935
- IC50 [1]: > 20 µM

Cell Line: CA46 (Burkitt lymphoma, suspension, top dose 20 µM)
- AUC [1]: 0.839
- IC50 [1]: 15.1 µM

Cell Line: CADO-ES1 (Ewing sarcoma, suspension, top dose 20 µM)
- AUC [1]: 0.93
- IC50 [1]: > 20 µM

Cell Line: CAKI-1 (kidney, adherent, top dose 20 µM)
- AUC [1]: 0.87
- IC50 [1]: > 20 µM

Cell Line: CAL-12T (non-small cell lung carcinoma, adherent, top dose 20 µM)
- AUC [1]: 0.797
- IC50 [1]: 10.7 µM

Cell Line: CAL-27 (head and neck, adherent, top dose 20 µM)
- AUC [1]: 0.926
- IC50 [1]: > 20 µM

Cell Line: CAL-29 (bladder, adherent, top dose 20 µM)
- AUC [1]: 0.975
- IC50 [1]: > 20 µM

Cell Line: CAL-33 (head and neck, adherent, top dose 20 µM)
- AUC [1]: 0.909
- IC50 [1]: > 20 µM

Cell Line: CAL-39 (cervix, adherent, top dose 20 µM)
- AUC [1]: 0.962
- IC50 [1]: > 20 µM

Cell Line: U-266 (myeloma, semi-adherent)
- AUC [2]: 0.835
- IC50 [2]: > 4 µM

Cell Line: VMRC-LCD (lung adenocarcinoma, adherent)
- AUC [2]: 0.989
- IC50 [2]: > 4 µM

Cell Line: ZR-75-30 (breast, adherent)
- AUC [2]: 0.981
- IC50 [2]: > 4 µM

By IC50 is meant the dose at which the fit gives 50% viability; where the fit passes the top or lowest dose, that dose stands as a limit. AUC is the area under the same curve over the 256-fold range up to the top dose, as a fraction; it is 1 without any effect and falls as sensitivity rises. Where the top dose is marked as inferred, it comes from the curve model; the source does not state it. For some of these results: Drugs with an entry number were screened twice under separate entries, and the two screens often disagree.
